Measured values as given in ChEMBL document CHEMBL1944624, “Synthesis and antimalarial and antituberculosis activities of a series of natural and unnatural 4-methoxy-6-styryl-pyran-2-ones, dihydro analogues and photo-dimers” (Bioorg Med Chem, 2012).
Converted amounts (≈) assume the structure as drawn.

Tested on: Mycobacterium tuberculosis
Conditions: H37Rv

| Compound | MIC |
| --- | --- |
| COc1cc(CCc2ccc3c(c2)OCO3)oc(=O)c1 | > 360 µM |
| COc1cc(/C=C/c2ccc(OC)c(OC)c2)oc(=O)c1 | > 350 µM |
| COc1cc(/C=C/c2cccc([N+](=O)[O-])c2)oc(=O)c1 | > 370 µM |
| COc1cc(/C=C/c2ccc([N+](=O)[O-])cc2)oc(=O)c1 | > 370 µM |
| COc1cc(/C=C/c2ccc(C(C)(C)C)cc2)oc(=O)c1 | > 350 µM |
| COc1cc(/C=C/c2ccc3c(c2)OCO3)oc(=O)c1 | > 370 µM |
| COc1cc(/C=C/c2cccc(Oc3ccccc3)c2)oc(=O)c1 | > 310 µM |
| COc1cc(/C=C/c2cccc(Oc3ccc(C(C)(C)C)cc3)c2)oc(=O)c1 | > 270 µM |
| COc1cc(/C=C/C=C/c2ccccc2)oc(=O)c1 | > 390 µM |
| COc1cc(/C=C/C=C/c2ccc(N(C)C)cc2)oc(=O)c1 | 170 µM (≈ 50.6 µg/mL) |
| COc1cc(/C=C/c2ccco2)oc(=O)c1 | > 460 µM |
| COc1cc(/C=C/c2cccc3ccccc23)oc(=O)c1 | > 360 µM |
| COc1cc(/C=C/c2ccc3ccccc3c2)oc(=O)c1 | > 360 µM |
| COc1cc(/C=C/c2ccc(/C=C/c3cc(OC)cc(=O)o3)cc2)oc(=O)c1 | > 260 µM |
| COc1cc(CCc2ccc(C(C)(C)C)cc2)oc(=O)c1 | 170 µM (≈ 48.7 µg/mL) |
| COc1cc(CCc2ccc(OC)c(OC)c2)oc(=O)c1 | > 340 µM |

| Compound | MIC |
| --- | --- |
| COc1cc(CCc2cccc(Oc3ccc(C(C)(C)C)cc3)c2)oc(=O)c1 | 130 µM (≈ 49.2 µg/mL) |
| COc1cc(CCc2cccc3ccccc23)oc(=O)c1 | 270 µM (≈ 75.7 µg/mL) |
| COc1cc(CCc2ccc3ccccc3c2)oc(=O)c1 | 180 µM (≈ 50.5 µg/mL) |
| COc1cc(CCc2ccc(CCc3cc(OC)cc(=O)o3)cc2)oc(=O)c1 | > 260 µM |
| COc1cc(=O)oc([C@H]2[C@H](c3ccc(OC)c(OC)c3)[C@H](c3cc(OC)cc(=O)o3)[C@H]2c2ccc(OC)c(OC)c2)c1 | > 170 µM |
| COc1cc(=O)oc([C@H]2[C@H](c3ccc4ccccc4c3)[C@H](c3cc(OC)cc(=O)o3)[C@H]2c2ccc3ccccc3c2)c1 | > 180 µM |
| COc1cc([C@@H]2[C@@H](c3ccccc3)[C@@H](c3ccccc3)[C@@H]2c2cc(OC)cc(=O)o2)oc(=O)c1 | > 220 µM |
| COc1cc([C@@H]2[C@@H](c3ccc4c(c3)OCO4)[C@@H](c3ccc4c(c3)OCO4)[C@@H]2c2cc(OC)cc(=O)o2)oc(=O)c1 | > 180 µM |
| COC1=CC(=O)O[C@]2(/C=C/c3ccc(C(C)(C)C)cc3)[C@H]1[C@H](c1ccc(C(C)(C)C)cc1)[C@H]2c1cc(OC)cc(=O)o1 (racemic) | > 180 µM |
| COC1=CC(=O)O[C@]2(/C=C/c3cccc(Oc4ccc(C(C)(C)C)cc4)c3)[C@H]1[C@H](c1cccc(Oc3ccc(C(C)(C)C)cc3)c1)[C@H]2c1cc(OC)cc(=O)o1 (racemic) | > 130 µM |
| COC1=CC(=O)O[C@]2(/C=C/c3ccccc3)[C@H]1[C@H](c1ccccc1)[C@H]2c1cc(OC)cc(=O)o1 (relative stereo) | > 220 µM |
| COC1=CC(=O)O[C@]2(/C=C/c3ccc(OC)c(OC)c3)[C@H]1[C@H](c1ccc(OC)c(OC)c1)[C@H]2c1cc(OC)cc(=O)o1 (relative stereo) | > 170 µM |
| COc1cc(/C=C/c2ccccc2)oc(=O)c1 [DESMETHOXYYANGONIN] | > 440 µM |
| COc1cc(CCc2ccccc2)oc(=O)c1 [DIHYDRO-5,6-DEHYDROKAWAIN] | > 430 µM |
| NNC(=O)c1ccncc1 [ISONIAZID] | 0.22 µM (≈ 0.0302 µg/mL) |
